In US20070161783A1 (published 2007):

Experiments:
[1] = target: H3.77_L3 S239D/I332E/A330Y Hybrid
[2] = target: H3.77_L3 I332E/H268E/G236A Hybrid
[3] = target: H3.77_L3 S239D/H268E Hybrid
[4] = target: H3.77_L3 S239D/I332E/G236A Hybrid
[5] = target: H3.77_L3 I332E/H268E Hybrid
[6] = target: H3.77_L3 I332E/G236A Hybrid
[7] = target: H3.77_L3 S239D/I332E Hybrid

Kd (H3.77_L3 WT Hybrid): 171 nM
Kd [1]: 11 nM
Kd [2]: 49.7 nM
Kd [3]: 16.1 nM
Kd [4]: 22.4 nM
Kd [5]: 26.9 nM
Kd [6]: 98.9 nM
Kd [7]: 14.4 nM
Kd (H2.12_L3 WT Hybrid Lec13): 28.9 nM
B1: V158 FcgRIIIa (receptor)
chain: not shown
